Source: a melting point compilation (Tetko et al.; mined from patent text by program, amines drawn as free bases though some values may be those of a salt)

melting point: 275 to 280 °C
SMILES: CN1c2ccc(-c3ccc4ccccc4c3)cc2S(=O)c2cc(-c3ccc4ccccc4c3)ccc21
